Experimental data reported in the supplement of paper PMC11417369.
The other results are listed elsewhere or left out.

test system: PfSIP2 AP2 domain 1 (GST-tagged); assay: gcPBM binding intensity (ln(normalized median fluorescence intensity)); higher = stronger DNA binding
Summary of the method: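 The highest Masliner-normalised natural-log median intensity across replicate spots of either probe orientation is reported as binding intensity. GST-tagged P. falciparum DNA-binding domains expressed in E. coli were applied for 1 h to an Agilent 4 × 180k array of primer-extended double-stranded 36-bp intergenic genomic probes plus negative controls, and bound protein was detected with Alexa488 anti-GST antibody and scanned at 488 nm.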

Sequence | gcPBM binding intensity (ln)
AAAAAAAAAAAAAAATGTACATATAAATAAATATAT [XGTACX_site7248] | 7.15
TAATATCCATATAAAACACACATCAAGGTTGTTAAC [CACACA_site175] | 6.73
ACAACATAGAGGGGCACACACATATATACATAAAAA [CACACA_site6954] | 8.02
TATGTGCACCCATATACACACACAAATACAATGATA [CACACA_site8295] | 12.3
AATTCATATACAAAAAGTACAAACGAAAAATAAAAA [XGTACX_site2900] | 7.09
ATGTTTTATATTATTAATATATATATATATATATAT [CACACA_negctrl_site331] | 9.05
GTTATATAAAAATATTGTACATTCTATATAAAGTCA [XGTACX_site4418] | 6.95
AATCTAATTAAAATCACACATATATTCGTCGTAATA [CACACA_site5855] | 6.71
AAAAAATTAACGAGTGCACACATATTTAGATAAAAT [CACACA_site8958] | 10.6
ATATATATATATATAACACACGTGTATTTATCTGTA [CACACA_site5922] | 9.33
ATTCAAAAAAAATCAACACACAGTTACATAGCTCAA [CACACA_site2234] | 6.91
ATTCCATAAGTAAACACACAAATGCCAAAATTTTAT [CACACA_site7491] | 7.12
ATATATATATATATGTGTACACAAAAAATATTATAT [XGTACX_site5741] | 9.27
GCACATATATATGAAACACACATGGAAACATCTCTT [CACACA_site3966] | 7.06
ATGGAAAAAAAGCATTGTACATTTAAAGAAAAACAG [XGTACX_site6639] | 7.42
TATTATATTTGTATGTGTACTTATATGGTTGTAATA [XGTACX_site4548] | 7.2
AACGAAAACACTACGTGTACCAAATGTCCTGCCAAC [XGTACX_site5735] | 6.67
AAATATTATCAAACATAAATTATTTTTATCCGTATA [CACACA_negctrl_site771] | 6.64
AATGTATATTATTGCACACATATATAAAATTATGCT [CACACA_site1096] | 7.39
ATATATGTTAATAATTGTACAAATCGATAATATATA [XGTACX_site5076] | 7.04
TCTCTAATTTTTAATACACACAAATAAATAAATAAA [CACACA_site216] | 7.14
AAAAAAATATAGATCTGTACATATATAAATATATGT [XGTACX_site511] | 6.91
ATTTGTGAATATATTCGGTGAACTTTGTTAACACAT [XGTACX_negctrl_site445] | 6.8
ATCTCTATGATATATACACACAAATATACAAAAAAA [CACACA_site6605] | 6.97
